Laboratory results: paper PMC12040169 (PLOS Biology, 2025)
Some of the results follow.

system: T1, C. trachomatis L2/434/Bu expressing GFP (CTL2-GFP); parameters: species or system HeLa; C. trachomatis total inclusion area by high-content imaging, normalised to DMSO; conditions: total inclusion area; 28.5 h, 10 µM; inhibitor
T1 construct: L2/434/Bu GFP intracellular growth in HeLa cells
Procedure, shortened: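 Imaging read-out: GFP inclusions and Hoechst nuclei captured by high-content imaging after fixation. Inclusion area/number = chlamydial growth; nuclei count = host cell viability. MIC calculated per earlier method.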

Row | Structure (SMILES) | % of control remaining
1 | Cn1ccnc1CN(Cc1ccccc1)C1CC(C)(C)NC(C)(C)C1 [CBK283177] | 90.4468
2 | Fc1cnc(Nc2ccccc2)nc1N1CCOCC1 [CBK287279] | 61.6782
3 | C/C(=C1/SC(=S)N(c2cccc(C(=O)O)c2)C1=O)c1cccc([N+](=O)[O-])c1 [CBK265168] | 104.581
4 | COc1ccc(F)c(CN(CC2CCNCC2)C(=O)Nc2c(C)noc2C)c1 [CBK049811] | 91.3072
5 | CNC(=O)c1ccc(-c2cccc(OC(F)(F)F)c2)nc1NCCOC [CBK106000] | 127.826
6 | CCCC/C=C/c1cncc(NC(C)CCCC(C)(C)O)n1 (centres unmarked) [CBK065505] | 107.169
7 | Cc1cc(C)c(C)c(S(=O)(=O)N2CCN(c3ncnc4sc(C)c(C)c34)CC2)c1C [CBK265297] | 95.0468
8 | O=C1CCC(=O)N1Cc1cccc(-c2ccnc(NS(=O)(=O)c3ccc(Cl)cc3)n2)c1 [CBK067436] | 83.272
9 | O=C(/C=C/c1ccco1)Nc1sc2c(c1C(=O)O)CCC2 [CBK263181] | 103.766
10 | O=C(CCn1c(-c2cccnc2)cc2cccnc21)NC1CCCCC1 [CBK282647] | 113.079
11 | CC(C)c1cc(C(=O)N(C)Cc2cccc3ncccc23)n(C)n1 [CBK282567] | 98.9037
12 | CC(C)CNc1n[nH]c(=S)s1 [CBK016865] | 82.1661
13 | Cc1c(S(=O)(=O)N2CCN(C3CCN(C)CC3)CC2)sc2ccc(C(C)C)cc12 [CBK170352] | 49.4785
14 | COc1ccc(S(=O)(=O)N2CCC3(CC2)CC(=O)c2ccc(C)cc2O3)cc1OC [CBK166515] | 63.6791
15 | CC(=O)NCc1cccc(-c2cc(C(=O)Nc3ccc4c(c3)OCCO4)cnc2-c2cccnc2)c1 [CBK160658] | 101.298
16 | CC1CCN(CC(=O)Nc2sc3c(c2C(=O)NCc2ccccc2)CCCC3)CC1 [CBK268387] | 94.9268
17 | CCc1cc2c(NC(CCSC)C(=O)O)nc(C)nc2s1 (centres unmarked) [CBK266709] | 108.316
18 | CC(Cc1cccs1)NC(=O)CSCc1ccco1 (centres unmarked) [CBK283238] | 102.989
19 | c1ccc(C(=NCCN=C(c2ccccc2)c2ccccc2)c2ccccc2)cc1 [CBK262065] | 93.7781
20 | Cc1ccc(NC(=O)N2CCCC(CO)C2)cc1 (centres unmarked) [CBK156065] | 78.7459
21 | COc1ccc(Cl)cc1N1CCN(CCCn2c(=O)[nH]c3ccccc32)CC1 [CBK138338] | 89.6063

Row | Structure (SMILES) | % of control remaining
22 | Nc1ncc(CN(Cc2ccco2)CC(O)Cn2c3ccccc3c3ccccc32)cn1 (centres unmarked) [CBK286462] | 100.448
23 | O=C(C1CCCN(c2ccc3nncn3n2)C1)N1CCOCC1 (centres unmarked) [CBK287901] | 126.801
24 | O=C(O)c1sc2ncccc2c1NS(=O)(=O)c1ccc(C(F)(F)F)cc1[N+](=O)[O-] [CBK050647] | 84.7376
25 | CC(=O)Nc1ccc2nc(NC(=O)c3ccc4c(c3)OCCO4)sc2c1 [CBK287571] | 54.3001
26 | O=c1c2snc(-c3ccc(F)cc3)c2ncn1C1CC1 [CBK282859] | 36.5117
27 | Cc1cc(O)ccc1C(CC(=O)O)c1ccccc1 (centres unmarked) [CBK013350] | 98.7304
28 | CN(C)CCN(C)c1ccc(-c2ccc(F)c(Cl)c2)cn1 [CBK036979] | 105.881
29 | CC(=O)Nc1cc(S(=O)(=O)N2CCOCC2)c(Br)cc1C [CBK034334] | 33.8124
30 | O=C(CCn1c(=O)oc2ccccc21)N1CC=C(c2ccc(F)cc2)CC1 [CBK295602] | 109.959
31 | CN(C)CCCNC(=O)c1ccnc(/C=N/O)c1 [CBK288434] | 120.864
32 | CCn1c2ccccc2c2cc(C#N)c(=O)[nH]c21 [CBK013595] | 99.0375
33 | OCc1ccc(-n2cc(-c3ccc(F)cc3F)nn2)cc1 [CBK112982] | 102.766
34 | COc1ccccc1CC(=O)N1CCC(Cc2ccc(-c3ccccc3)cc2)(C(N)=O)CC1 [CBK285777] | 111.407
35 | O=C(NCCc1nc2cccnc2n1-c1ccccc1)c1ccncc1 [CBK288599] | 108.869
36 | COc1cc(C)c(C)cc1S(=O)(=O)n1ccnc1C [CBK287579] | 100.873
37 | O=C(Cn1c(-c2ccc(F)cc2)cc2cccnc21)NC1CC1 [CBK284861] | 99.59
38 | CC(=O)c1ccccc1NC(C#N)c1ccccc1 (centres unmarked) [CBK057758] | 82.3084
39 | COc1ccc(C(C)C)cc1-c1ccc(NS(C)(=O)=O)c2ccccc12 [CBK083747] | 96.2896
40 | CCSc1nnc(Cc2cc(=O)[nH]c(=O)[nH]2)n1-c1ccc(F)cc1 [CBK287500] | 95.1486
41 | CCc1nnc(NS(=O)(=O)c2ccc(NCc3ccccc3O)cc2)s1 [CBK085149] | 65.8689
